Results as given in the supplement of paper PMC12067230.
Single values of this set are uncertain.

Assay: amyloid nucleation score relative to library mode (yeast Sup35 reporter selection) (log enrichment difference); higher = more amyloid nucleation; sequences are the first 22 residues of the Bri2 peptide extended by up to 12 random residues
Details: random library (experiment): 1;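 active = nucleation score significantly above 0 at FDR 0.05; inactive = not significantly above 0 or absent from output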
Description: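 Random C-terminal extensions of the 22-aa Bri2 peptide by 12 NNK codons; premature stops give shorter extensions. Peptides were fused to the Sup35 nucleation domain in S. cerevisiae [psi-pin-] and selected on -ADE-URA plates for 7 d at 30 °C. The nucleation score is log(output/input), centred to the mode of each of 3 independent libraries (1 input, 3 technical output replicates), with duplicates merged. Sequences absent from the output ('random_non_nuc') were imputed with the library mode value, so they are given as censored (<). Nucleators are scores significantly >0 at FDR 0.05.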
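Note: [psi-pin-] Saccharomyces cerevisiae expressing SupN fusions, induced by 100 µM Cu2SO4, selected 7 d at 30 °C without adenine and uracil, scored by deep sequencing of output versus input.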

Row | Sequence | amyloid nucleation score
1 | EASNCFAIRHFENKFAVETLICNLRYGRRERLRC | inactive
2 | EASNCFAIRHFENKFAVETLICLYGIGNVKEGCS | 5.59
3 | EASNCFAIRHFENKFAVETLICQLCSAWASLLMD | inactive
4 | EASNCFAIRHFENKFAVETLICTVLSLRKCLVHS | 0.674
5 | EASNCFAIRHFENKFAVETLICTRMNSCDDTL | inactive
6 | EASNCFAIRHFENKFAVETLICADTLLGQECVML | inactive
7 | EASNCFAIRHFENKFAVETLICALRAVKSRCTHG | inactive
8 | EASNCFAIRHFENKFAVETLICFCMCRIYNCTCA | 2.54
9 | EASNCFAIRHFENKFAVETLICREWYAVDGAGLE | inactive
10 | EASNCFAIRHFENKFAVETLICNVGHPG | 4.04
11 | EASNCFAIRHFENKFAVETLICVRSARPL | inactive
12 | EASNCFAIRHFENKFAVETLICHL | 4.83
13 | EASNCFAIRHFENKFAVETLICLCEGWYHWADDG | inactive
14 | EASNCFAIRHFENKFAVETLICAGHELVMWGYSH | inactive
15 | EASNCFAIRHFENKFAVETLICYDAEGSWGVVVQ | inactive
16 | EASNCFAIRHFENKFAVETLICGSWTE | 5.31
17 | EASNCFAIRHFENKFAVETLICVGFSHVVLWLEG | inactive
18 | EASNCFAIRHFENKFAVETLICVYCAALLPASDV | 7.65
19 | EASNCFAIRHFENKFAVETLICPGKEGLRMLSGT | inactive

Row | Sequence | amyloid nucleation score
20 | EASNCFAIRHFENKFAVETLICLIWLSVLYRQSR | inactive
21 | EASNCFAIRHFENKFAVETLICGMTVLVGAPCAA | inactive
22 | EASNCFAIRHFENKFAVETLICVKNRWVYCIRRC | inactive
23 | EASNCFAIRHFENKFAVETLICVGGP | -0.265
24 | EASNCFAIRHFENKFAVETLICQHGHKTWSRMQW | 3.74
25 | EASNCFAIRHFENKFAVETLICDDSYMSEPRGRC | inactive
26 | EASNCFAIRHFENKFAVETLICLIRALVRTTHVC | inactive
27 | EASNCFAIRHFENKFAVETLICLWCPPMAGLCWR | 4.96
28 | EASNCFAIRHFENKFAVETLICIWVCSLLTTARW | inactive
29 | EASNCFAIRHFENKFAVETLICCWVGLCVFMGAH | 3.22
30 | EASNCFAIRHFENKFAVETLICLHARSYLDWGG | inactive
31 | EASNCFAIRHFENKFAVETLICVWLRLYLVTLRS | -0.179
32 | EASNCFAIRHFENKFAVETLICFTNGERGKECLT | inactive
33 | EASNCFAIRHFENKFAVETLICRSLITMS | inactive
34 | EASNCFAIRHFENKFAVETLICVAHTGHLVGRVW | inactive
35 | EASNCFAIRHFENKFAVETLICLRYSLVVRRGMS | 0.578
36 | EASNCFAIRHFENKFAVETLICTDVFKMGARSGW | 7.33
37 | EASNCFAIRHFENKFAVETLICVMYTWSERGPGR | inactive
38 | EASNCFAIRHFENKFAVETLICKIVPCVKGYKWE | inactive

Same assay, conditions: random library (experiment): 2

Row | Sequence | amyloid nucleation score
39 | EASNCFAIRHFENKFAVETLICVVLSVNVYCSMG | -0.378
40 | EASNCFAIRHFENKFAVETLICVMDVGIVICHVK | inactive
41 | EASNCFAIRHFENKFAVETLICVSK | inactive
42 | EASNCFAIRHFENKFAVETLICTTTSFVLFCLML | inactive
43 | EASNCFAIRHFENKFAVETLICCFCFWYKNKRVL | -0.255
44 | EASNCFAIRHFENKFAVETLICVFQLIFMMDRST | inactive
45 | EASNCFAIRHFENKFAVETLICYGMYNFLIVYFP | inactive
46 | EASNCFAIRHFENKFAVETLICNPSMVVYMFFVD | 4.36
47 | EASNCFAIRHFENKFAVETLICMRRSVPITACGI | inactive
48 | EASNCFAIRHFENKFAVETLICYKKALFGCGKIF | inactive
49 | EASNCFAIRHFENKFAVETLICLVDLLGKKWFCQ | inactive
50 | EASNCFAIRHFENKFAVETLICPLLCGFYHYGSW | 7.59
51 | EASNCFAIRHFENKFAVETLICVSNGNQGTLALL | inactive
52 | EASNCFAIRHFENKFAVETLICDPAFCPRLCVSR | inactive
53 | EASNCFAIRHFENKFAVETLICNCHSSQSVSCD | 6.41
54 | EASNCFAIRHFENKFAVETLICVSVWYWAGERRS | inactive
55 | EASNCFAIRHFENKFAVETLICLTENQ | inactive
56 | EASNCFAIRHFENKFAVETLICVTKRDI | -0.174
57 | EASNCFAIRHFENKFAVETLICNVCSTICLFAMS | 7.73
58 | EASNCFAIRHFENKFAVETLICCLLG | 7.95
59 | EASNCFAIRHFENKFAVETLICLVIGLGLVYRRY | inactive
60 | EASNCFAIRHFENKFAVETLICRYNCEQMWCLRM | inactive
61 | EASNCFAIRHFENKFAVETLICGGVFSRS | inactive

Row | Sequence | amyloid nucleation score
62 | EASNCFAIRHFENKFAVETLICVSLGRGFLPTER | inactive
63 | EASNCFAIRHFENKFAVETLICLEDVFEFVYRRM | inactive
64 | EASNCFAIRHFENKFAVETLICLVYLIRQHVWSM | inactive
65 | EASNCFAIRHFENKFAVETLICMDADPHIMASDN | inactive
66 | EASNCFAIRHFENKFAVETLICLERAYVWETFTG | inactive
67 | EASNCFAIRHFENKFAVETLICYLLNR | 6.41
68 | EASNCFAIRHFENKFAVETLICIVVWVGICQCLV | inactive
69 | EASNCFAIRHFENKFAVETLICRSCCLPNTWASV | 6.28
70 | EASNCFAIRHFENKFAVETLICVGTLVIYEERKA | 8.95
71 | EASNCFAIRHFENKFAVETLICMGKIW | 4.69
72 | EASNCFAIRHFENKFAVETLICMRRRRDSDST | -0.174
73 | EASNCFAIRHFENKFAVETLICTRSWHSLVNYDY | inactive
74 | EASNCFAIRHFENKFAVETLICGSQTCQLNGLDR | -0.0198
75 | EASNCFAIRHFENKFAVETLICCDDSHSLFYG | 6.06
76 | EASNCFAIRHFENKFAVETLICCDCLY | 8.05
77 | EASNCFAIRHFENKFAVETLICFPSTPVRMYRCS | inactive
78 | EASNCFAIRHFENKFAVETLICGCHTLCTRRGEE | 6.98
79 | EASNCFAIRHFENKFAVETLICVVKNLNVSWCVW | inactive
80 | EASNCFAIRHFENKFAVETLICCYRYMQLYGSPR | inactive
81 | EASNCFAIRHFENKFAVETLICFVLFIWDTSWPR | inactive
82 | EASNCFAIRHFENKFAVETLICKHKAFKGSSVGW | inactive
83 | EASNCFAIRHFENKFAVETLICVRVYSPWICGGW | 4.34
84 | EASNCFAIRHFENKFAVETLICFVVSTALETGVL | inactive

Same assay, conditions: random library (experiment): 3

Row | Sequence | amyloid nucleation score
85 | EASNCFAIRHFENKFAVETLICREAFSCVRYRLL | inactive
86 | EASNCFAIRHFENKFAVETLICNARFDYL | inactive
87 | EASNCFAIRHFENKFAVETLICGLVGTYVSHYAP | 5.75
88 | EASNCFAIRHFENKFAVETLICQEWTLVI | inactive
89 | EASNCFAIRHFENKFAVETLICVFGPIWTMSTET | 8.53
90 | EASNCFAIRHFENKFAVETLICHTR | inactive
91 | EASNCFAIRHFENKFAVETLICNWKMCNVSWMRM | -0.0696
92 | EASNCFAIRHFENKFAVETLICTWLVGHIVIG | inactive
93 | EASNCFAIRHFENKFAVETLICRF | inactive
94 | EASNCFAIRHFENKFAVETLICTTAMAPTYEILG | 0.104
95 | EASNCFAIRHFENKFAVETLICQMVGRVTWGWR | inactive
96 | EASNCFAIRHFENKFAVETLICGARERVLLHSVL | inactive
97 | EASNCFAIRHFENKFAVETLICELWSYDSASRRL | 5.11
98 | EASNCFAIRHFENKFAVETLICLFYSGFEVCLIR | inactive
99 | EASNCFAIRHFENKFAVETLICKQTGLRKNFRRL | inactive
100 | EASNCFAIRHFENKFAVETLICNSLENWSQVVCS | inactive
101 | EASNCFAIRHFENKFAVETLICYDYRVVFVGEMV | inactive
102 | EASNCFAIRHFENKFAVETLICVTPRRC | inactive
103 | EASNCFAIRHFENKFAVETLICTSVSNCAPKLDA | inactive
104 | EASNCFAIRHFENKFAVETLICFNAFTVDHSNVR | 7.85
105 | EASNCFAIRHFENKFAVETLICLVSVEA | 0.721
106 | EASNCFAIRHFENKFAVETLICANGAGGVVTGRK | inactive
107 | EASNCFAIRHFENKFAVETLICELSRTGFFRVSL | inactive
108 | EASNCFAIRHFENKFAVETLICGVHNR | inactive
109 | EASNCFAIRHFENKFAVETLICYGFRSSVCCV | -0.281
110 | EASNCFAIRHFENKFAVETLICFSAIY | 7.41
111 | EASNCFAIRHFENKFAVETLICWMKVCRCCPSRS | inactive
112 | EASNCFAIRHFENKFAVETLICGCSVSSVHLNLG | 6.7
113 | EASNCFAIRHFENKFAVETLICVVFGITSKRYPT | inactive
114 | EASNCFAIRHFENKFAVETLICDVKIATSSGGHG | 4.53
